Experiments:
SR leukemia cells [1] = test system: SR leukemia cells
[2] = test system: EKVX non-small cell lung cancer cells
[3] = test system: NCI-H460 non-small cell lung cancer cells
[4] = test system: HCC-2998 colon cancer cells
SK-MEL-28 melanoma cells [5] = test system: SK-MEL-28 melanoma cells
UACC-257 melanoma cells [6] = test system: UACC-257 melanoma cells
[7] = test system: IGR-OV1 ovarian cancer cells
[8] = test system: OVCAR-4 ovarian cancer cells
SN12C renal cancer cells [9] = test system: SN12C renal cancer cells
[10] = test system: MDA-MB-435 breast cancer cells
RPMI-8226 leukemia cells = experiment: cells; conditions: Homo sapiens
[11] = test system: T-47D breast cancer cells
SR leukemia cells [12] = experiment: cells
[13] = test system: EKVX non-small cell lung cancer cells; experiment: cells; conditions: Homo sapiens
[14] = test system: NCI-H226 non-small cell lung cancer cells; experiment: cells; conditions: Homo sapiens
[15] = test system: NCI-H23 non-small cell lung cancer cells; experiment: cells; conditions: Homo sapiens
HT29 colon cancer cells = experiment: cells; conditions: Homo sapiens
KM12 colon cancer cells = experiment: cells; conditions: Homo sapiens
LOX IMVI melanoma cells = experiment: cells; conditions: Homo sapiens
M14 melanoma cells = experiment: cells; conditions: Homo sapiens
SK-MEL-2 melanoma cells = experiment: cells; conditions: Homo sapiens
SK-MEL-28 melanoma cells [16] = experiment: cells; conditions: Homo sapiens
UACC-257 melanoma cells [17] = experiment: cells; conditions: Homo sapiens
UACC-62 melanoma cells = experiment: cells; conditions: Homo sapiens
[18] = test system: IGR-OV1 ovarian cancer cells; experiment: cells; conditions: Homo sapiens
[19] = test system: OVCAR-4 ovarian cancer cells; experiment: cells; conditions: Homo sapiens
SN12C renal cancer cells [20] = experiment: cells; conditions: Homo sapiens
[21] = test system: DU-145 prostate cancer cells; experiment: cells; conditions: Homo sapiens
[22] = test system: MDA-MB-435 breast cancer cells; experiment: cells; conditions: Homo sapiens
[23] = test system: MDA-N breast cancer cells; experiment: cells; conditions: Homo sapiens
[24] = test system: BT-549 breast cancer cells; experiment: cells; conditions: Homo sapiens
[25] = read-out: Percent Growth, log10 conc -4.0
[26] = read-out: Percent Growth, log10 conc -5.0
[27] = read-out: Percent Growth, log10 conc -6.0
[28] = read-out: Percent Growth, log10 conc -7.0
[29] = read-out: Percent Growth, log10 conc -8.0

COc1cc2c(c(OC)c1OC)-c1ccc(OC)c(=O)cc1[C@@H](NC(C)=O)CC2 [Colchicine, reference compound]
TGI (CCRF-CEM leukemia cells): > 100000 nM
TGI (K-562 leukemia cells): > 100000 nM
TGI (SR leukemia cells [1]): > 100000 nM
TGI [2]: > 100000 nM
TGI [3]: 56.4 nM
TGI [4]: 22400 nM
TGI (SK-MEL-28 melanoma cells [5]): > 100000 nM
TGI (UACC-257 melanoma cells [6]): > 100000 nM
TGI [7]: > 100000 nM
TGI [8]: > 100000 nM
TGI (SN12C renal cancer cells [9]): 61900 nM
TGI (UO-31 renal cancer cells): > 100000 nM
TGI [10]: 31.5 nM
GI50 (RPMI-8226 leukemia cells; RPMI-8226): < 10 nM
activity at 100 µM (RPMI-8226 leukemia cells; RPMI-8226, read-out: Percent Growth, log10 conc -4.0): 16%
activity at 10 µM (RPMI-8226 leukemia cells; RPMI-8226, read-out: Percent Growth, log10 conc -5.0): 10%
activity at 1 µM (RPMI-8226 leukemia cells; RPMI-8226, read-out: Percent Growth, log10 conc -6.0): 10%
activity at 0.1 µM (RPMI-8226 leukemia cells; RPMI-8226, read-out: Percent Growth, log10 conc -7.0): 12%
activity at 0.01 µM (RPMI-8226 leukemia cells; RPMI-8226, read-out: Percent Growth, log10 conc -8.0): 39%
TGI [11]: > 100000 nM
GI50 (SR leukemia cells [12]): 32.7 nM
activity at 100 µM (SR leukemia cells [12]; [25]): 15%
activity at 10 µM (SR leukemia cells [12]; [26]): 6%
activity at 1 µM (SR leukemia cells [12]; [27]): 7%
activity at 0.1 µM (SR leukemia cells [12]; [28]): 12%
activity at 0.01 µM (SR leukemia cells [12]; [29]): 91%
GI50 [13]: > 100000 nM
activity at 100 µM [13, 25]: 75%
activity at 10 µM [13, 26]: 66%
activity at 1 µM [13, 27]: 74%
activity at 0.1 µM [13, 28]: 79%
GI50 ([14]; NCI-H226): 27.5 nM
activity at 100 µM ([14]; NCI-H226, read-out: Percent Growth, log10 conc -4.0): -34%
activity at 10 µM ([14]; NCI-H226, read-out: Percent Growth, log10 conc -5.0): 7%
activity at 1 µM ([14]; NCI-H226, read-out: Percent Growth, log10 conc -6.0): -7%
activity at 0.1 µM ([14]; NCI-H226, read-out: Percent Growth, log10 conc -7.0): -3%
activity at 0.01 µM ([14]; NCI-H226, read-out: Percent Growth, log10 conc -8.0): 91%
activity at 100 µM ([15]; NCI-H23, read-out: Percent Growth, log10 conc -4.0): 13%
activity at 10 µM ([15]; NCI-H23, read-out: Percent Growth, log10 conc -5.0): 2%
activity at 1 µM ([15]; NCI-H23, read-out: Percent Growth, log10 conc -6.0): 4%
activity at 0.1 µM ([15]; NCI-H23, read-out: Percent Growth, log10 conc -7.0): 3%
activity at 0.01 µM ([15]; NCI-H23, read-out: Percent Growth, log10 conc -8.0): 90%
GI50 (HT29 colon cancer cells; HT-29): 28.2 nM
activity at 100 µM (HT29 colon cancer cells; HT-29, read-out: Percent Growth, log10 conc -4.0): -13%
activity at 10 µM (HT29 colon cancer cells; HT-29, read-out: Percent Growth, log10 conc -5.0): 0%
activity at 1 µM (HT29 colon cancer cells; HT-29, read-out: Percent Growth, log10 conc -6.0): -1%
activity at 0.1 µM (HT29 colon cancer cells; HT-29, read-out: Percent Growth, log10 conc -7.0): 0%
activity at 0.01 µM (HT29 colon cancer cells; HT-29, read-out: Percent Growth, log10 conc -8.0): 91%
activity at 100 µM (KM12 colon cancer cells; KM12, read-out: Percent Growth, log10 conc -4.0): 10%
activity at 10 µM (KM12 colon cancer cells; KM12, read-out: Percent Growth, log10 conc -5.0): 26%
activity at 0.1 µM (KM12 colon cancer cells; KM12, read-out: Percent Growth, log10 conc -7.0): 23%
activity at 0.01 µM (KM12 colon cancer cells; KM12, read-out: Percent Growth, log10 conc -8.0): 74%
GI50 (LOX IMVI melanoma cells): 19.5 nM
activity at 100 µM (LOX IMVI melanoma cells; [25]): -76%
activity at 10 µM (LOX IMVI melanoma cells; [26]): -7%
activity at 1 µM (LOX IMVI melanoma cells; [27]): -21%
activity at 0.1 µM (LOX IMVI melanoma cells; [28]): 4%
activity at 0.01 µM (LOX IMVI melanoma cells; [29]): 69%
GI50 (M14 melanoma cells; M14): 54.8 nM
activity at 100 µM (M14 melanoma cells; M14, read-out: Percent Growth, log10 conc -4.0): -50%
activity at 10 µM (M14 melanoma cells; M14, read-out: Percent Growth, log10 conc -5.0): 41%
activity at 1 µM (M14 melanoma cells; M14, read-out: Percent Growth, log10 conc -6.0): 38%
activity at 0.1 µM (M14 melanoma cells; M14, read-out: Percent Growth, log10 conc -7.0): 42%
activity at 0.01 µM (M14 melanoma cells; M14, read-out: Percent Growth, log10 conc -8.0): 72%
GI50 (SK-MEL-2 melanoma cells; SK-MEL-2): < 10 nM
activity at 100 µM (SK-MEL-2 melanoma cells; SK-MEL-2, read-out: Percent Growth, log10 conc -4.0): -32%
activity at 10 µM (SK-MEL-2 melanoma cells; SK-MEL-2, read-out: Percent Growth, log10 conc -5.0): -16%
activity at 1 µM (SK-MEL-2 melanoma cells; SK-MEL-2, read-out: Percent Growth, log10 conc -6.0): -10%
activity at 0.1 µM (SK-MEL-2 melanoma cells; SK-MEL-2, read-out: Percent Growth, log10 conc -7.0): -25%
activity at 0.01 µM (SK-MEL-2 melanoma cells; SK-MEL-2, read-out: Percent Growth, log10 conc -8.0): -13%
GI50 (SK-MEL-28 melanoma cells [16]; SK-MEL-28): 6110 nM
activity at 100 µM (SK-MEL-28 melanoma cells [16]; SK-MEL-28, read-out: Percent Growth, log10 conc -4.0): 13%
activity at 10 µM (SK-MEL-28 melanoma cells [16]; SK-MEL-28, read-out: Percent Growth, log10 conc -5.0): 49%
activity at 1 µM (SK-MEL-28 melanoma cells [16]; SK-MEL-28, read-out: Percent Growth, log10 conc -6.0): 54%
activity at 0.1 µM (SK-MEL-28 melanoma cells [16]; SK-MEL-28, read-out: Percent Growth, log10 conc -7.0): 57%
activity at 0.01 µM (SK-MEL-28 melanoma cells [16]; SK-MEL-28, read-out: Percent Growth, log10 conc -8.0): 69%
GI50 (UACC-257 melanoma cells [17]; UACC-257): > 100000 nM
activity at 100 µM (UACC-257 melanoma cells [17]; UACC-257, read-out: Percent Growth, log10 conc -4.0): 65%
activity at 10 µM (UACC-257 melanoma cells [17]; UACC-257, read-out: Percent Growth, log10 conc -5.0): 61%
activity at 1 µM (UACC-257 melanoma cells [17]; UACC-257, read-out: Percent Growth, log10 conc -6.0): 81%
activity at 0.1 µM (UACC-257 melanoma cells [17]; UACC-257, read-out: Percent Growth, log10 conc -7.0): 76%
activity at 0.01 µM (UACC-257 melanoma cells [17]; UACC-257, read-out: Percent Growth, log10 conc -8.0): 79%
activity at 100 µM (UACC-62 melanoma cells; UACC-62, read-out: Percent Growth, log10 conc -4.0): -70%
activity at 10 µM (UACC-62 melanoma cells; UACC-62, read-out: Percent Growth, log10 conc -5.0): 20%
activity at 1 µM (UACC-62 melanoma cells; UACC-62, read-out: Percent Growth, log10 conc -6.0): 19%
activity at 0.1 µM (UACC-62 melanoma cells; UACC-62, read-out: Percent Growth, log10 conc -7.0): 21%
activity at 0.01 µM (UACC-62 melanoma cells; UACC-62, read-out: Percent Growth, log10 conc -8.0): 64%
GI50 ([18]; IGROV-1): 52.5 nM
activity at 100 µM ([18]; IGROV-1, read-out: Percent Growth, log10 conc -4.0): 26%
activity at 10 µM ([18]; IGROV-1, read-out: Percent Growth, log10 conc -5.0): 22%
activity at 1 µM ([18]; IGROV-1, read-out: Percent Growth, log10 conc -6.0): 23%
activity at 0.1 µM ([18]; IGROV-1, read-out: Percent Growth, log10 conc -7.0): 30%
GI50 ([19]; OVCAR-4): 93400 nM
activity at 100 µM ([19]; OVCAR-4, read-out: Percent Growth, log10 conc -4.0): 50%
activity at 10 µM ([19]; OVCAR-4, read-out: Percent Growth, log10 conc -5.0): 54%
activity at 1 µM ([19]; OVCAR-4, read-out: Percent Growth, log10 conc -6.0): 59%
activity at 0.1 µM ([19]; OVCAR-4, read-out: Percent Growth, log10 conc -7.0): 63%
activity at 0.01 µM ([19]; OVCAR-4, read-out: Percent Growth, log10 conc -8.0): 94%
GI50 (SN12C renal cancer cells [20]): 53.4 nM
activity at 100 µM (SN12C renal cancer cells [20]; [25]): -7%
activity at 10 µM (SN12C renal cancer cells [20]; [26]): 27%
activity at 1 µM (SN12C renal cancer cells [20]; [27]): 30%
activity at 0.1 µM (SN12C renal cancer cells [20]; [28]): 34%
activity at 0.01 µM (SN12C renal cancer cells [20]; [29]): 93%
GI50 ([21]; DU-145): 8370 nM
activity at 100 µM ([21]; DU-145, read-out: Percent Growth, log10 conc -4.0): 19%
activity at 10 µM ([21]; DU-145, read-out: Percent Growth, log10 conc -5.0): 49%
activity at 1 µM ([21]; DU-145, read-out: Percent Growth, log10 conc -6.0): 63%
activity at 0.1 µM ([21]; DU-145, read-out: Percent Growth, log10 conc -7.0): 64%
activity at 0.01 µM ([21]; DU-145, read-out: Percent Growth, log10 conc -8.0): 96%
GI50 ([22]; MDA-MB-435): < 10 nM
activity at 100 µM ([22]; MDA-MB-435, read-out: Percent Growth, log10 conc -4.0): -34%
activity at 10 µM ([22]; MDA-MB-435, read-out: Percent Growth, log10 conc -5.0): -28%
activity at 1 µM ([22]; MDA-MB-435, read-out: Percent Growth, log10 conc -6.0): -22%
activity at 0.1 µM ([22]; MDA-MB-435, read-out: Percent Growth, log10 conc -7.0): -31%
activity at 0.01 µM ([22]; MDA-MB-435, read-out: Percent Growth, log10 conc -8.0): 31%
GI50 [23]: < 10 nM
activity at 100 µM [23, 25]: -9%
activity at 10 µM [23, 26]: 27%
activity at 1 µM [23, 27]: 25%
activity at 0.1 µM [23, 28]: 26%
activity at 0.01 µM [23, 29]: 38%
GI50 ([24]; BT-549): 42.5 nM
activity at 100 µM ([24]; BT-549, read-out: Percent Growth, log10 conc -4.0): -21%
activity at 10 µM ([24]; BT-549, read-out: Percent Growth, log10 conc -5.0): 48%
activity at 1 µM ([24]; BT-549, read-out: Percent Growth, log10 conc -6.0): 42%
activity at 0.1 µM ([24]; BT-549, read-out: Percent Growth, log10 conc -7.0): 39%
activity at 0.01 µM ([24]; BT-549, read-out: Percent Growth, log10 conc -8.0): 69%

Reference: US5760092A, “Allocolchinones and uses thereof” (Brandeis University, priority 1996, dated 1998)
